Here are results for 97 molecules from PubChem BioAssay AID1159614 (National Center for Advancing Translational Sciences (NCATS), 2016).

In all, about 45,000 compounds went through this assay and about 65 (0.1%) were called active. Calls come from the whole dose curve; as a rule, active = well fitted activation curve with a large enough effect; inconclusive = small, poorly fitted or top-dose-only effect; inactive = no such curve, though single readings can be large or run the other way. The list shows a part of the results.

Sequence of UniProt P54803 (P54803 whole entry, looked up): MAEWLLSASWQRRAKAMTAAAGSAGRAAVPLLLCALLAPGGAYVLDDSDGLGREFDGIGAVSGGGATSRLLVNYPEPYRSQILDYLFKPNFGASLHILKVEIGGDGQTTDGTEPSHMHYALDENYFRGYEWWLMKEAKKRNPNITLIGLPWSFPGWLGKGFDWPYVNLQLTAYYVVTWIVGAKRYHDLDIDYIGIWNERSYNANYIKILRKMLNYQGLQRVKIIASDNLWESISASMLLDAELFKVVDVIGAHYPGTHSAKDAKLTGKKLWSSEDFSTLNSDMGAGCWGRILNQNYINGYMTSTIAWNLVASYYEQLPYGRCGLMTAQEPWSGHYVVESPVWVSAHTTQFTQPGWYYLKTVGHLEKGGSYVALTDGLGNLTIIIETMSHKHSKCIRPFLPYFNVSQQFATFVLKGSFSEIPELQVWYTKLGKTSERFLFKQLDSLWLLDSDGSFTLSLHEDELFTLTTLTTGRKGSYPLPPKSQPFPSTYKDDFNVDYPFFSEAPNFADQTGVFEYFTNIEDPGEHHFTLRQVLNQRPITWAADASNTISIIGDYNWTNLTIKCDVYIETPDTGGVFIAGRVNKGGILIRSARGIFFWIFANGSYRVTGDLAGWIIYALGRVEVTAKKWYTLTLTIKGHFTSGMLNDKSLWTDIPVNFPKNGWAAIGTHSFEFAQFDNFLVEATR

In this experiment the target is Galactocerebrosidase (Homo sapiens) (UniProt P54803). Briefly: A Novel Cell-Based Assay to Identify Small Molecules for B -Galactocerebrosidase. Note: 0% is about no effect; nearly all actives have a fitted effect of over 65% in size. The settings on record: 145M-Twi-hGALC-G270D cells (Twitcher mouse brain line with human GALC G270D), HMU-beta-Gal fluorescence, 48 h; series mostly up to 57.5 µM; activation: at the top concentration. In short, it runs like this:
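Fluorescence readout: HMU-β-gal cleavage by mutant GALC (0.1 mM final, citrate/phosphate pH 5.2 with 1 mg/mL taurocholate), stopped with carbonate/bicarbonate plus Triton X-100. Cells: murine Twitcher 145M-Twi expressing human G270D GALC; qHTS for activators.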
With `Clc1ccc(C(Cn2ccnc2)OCc2ccc(Sc3ccccc3)cc2)c(Cl)c1` (configuration not stated), the “activation” value is inactive: -7.43%.
As for `COc1ccc2c(CNC3CCC(C)CC3)c(C(=O)O)n(Cc3ccccc3)c2c1` (configuration not stated), the “activation” value is inactive: -0.683%.
The value for `CC(=O)N1CCc2cc(CNC(=O)Nc3ccccc3C(F)(F)F)ccc21` was inactive: 4.35%; that for `CN(C)S(=O)(=O)N(CC(=O)NCCSc1ccc(Cl)cc1)c1ccccc1` was inactive: -5.08%; that for `CCC(C(=O)Nc1cc(OC)ccc1OC)n1nc(-c2ccccc2)c2c(c1=O)CCCC2` (configuration not stated) was inactive: 9.34%.
Take `Cn1c2ccccc2c2c(C(=O)N3CCN(c4cccc(C(F)(F)F)c4)CC3)cn(C3CCCCC3)c(=O)c21`: the “activation” value was inactive: -20%.
The result for `CCOc1ccccc1CNC(=O)C1CCN(Cc2cc3ccccc3n2Cc2ccccc2)CC1` reads inactive: -10.7%; that for `Cc1ccc(-c2cn3nc(N4CCC(C(=O)Nc5ccccc5C)CC4)sc3n2)cc1`, inactive: -2.8%; that for `CCCS(=O)(=O)c1nc(S(=O)(=O)c2ccc(C)cc2)c(NC(C)c2ccccc2)s1` (configuration not stated), inactive: 23.6%.
Take `CN1C(C(=O)NC(C)(C)C)=CC(c2ccc3c(c2)OCO3)=NS1(=O)=O`: the “activation” value is inactive: -19.3%.
For the molecule `COc1cccc(NS(=O)(=O)c2ccc3[nH]cc(C(=O)NCCc4ccc(C)cc4)c(=O)c3c2)c1`, the “activation” value was inactive: 1.96%.
The value for `Cc1ccc(-n2ccnc(NCc3cccs3)c2=O)cc1C` was inactive: -8.41%; that for `Cc1cccc(Cn2c(SCc3ccc(C(=O)NCc4ccccc4F)cc3)nc3cccnc32)c1` was inactive: -5.42%.
The value for `Cc1cc(C)c2oc(C(=O)Nc3nc4ccc(Cl)cc4s3)cc(=O)c2c1` was inactive: -14.9%; that for `COc1cc2nc(NC(=O)c3ccc(S(=O)(=O)N4CCCC4)cc3)sc2cc1OC` was inactive: -10.7%; that for `O=C(COCc1cc(-c2ccc3c(c2)OCO3)on1)N1CCN(c2cccc(C(F)(F)F)c2)CC1` was inactive: -18.3%.
For the molecule `CCC(=O)N1CCc2cc(S(=O)(=O)NCCC(=O)Nc3cccc(SC)c3)ccc21`, the “activation” value is inactive: -12.3%.
As to `O=C(COc1ccccc1F)Nc1ccc2nc(SCc3ccccc3)sc2c1`, the “activation” value was inactive: -1.51%.
`COc1ccc2oc(=O)c(-c3nc4ccc(C)cc4[nH]3)cc2c1`: the “activation” value is inactive: -13.3%.
The value for `COc1ccc(Br)cc1CC1C(=O)Nc2ccccc21` (configuration not stated) was inactive: -41.2%.
The result for `Cc1ccc(-n2ncc(C(=O)N3CCN(c4cccc(C)c4C)CC3)c2C2CCNCC2)c(C)c1` reads inactive: -19.2%.
The value for `CCOC(=O)c1cc(-c2ccc(F)cc2)n(CCC(=O)NCc2ccc(C)cc2)c1C` was inactive: -5.85%; that for `Cc1ccc2c(c1)sc1nc(=O)n(-c3cccc(Cl)c3)c(=O)n12` was inactive: -9.03%.
For the molecule `Cc1ccc(NC(=O)CN2CCN(C3CCCCC3)C(=O)C2=O)cc1C`, the “activation” value was inactive: -15.3%.
Turning to `CCCN1C(C(=O)c2ccccc2)=C(OC(=O)C(C)(C)C)c2ccccc2S1(=O)=O`, the “activation” value was inactive: -8.9%.
Consider `CN(C(=O)NCc1noc2ccccc12)c1cccc(Cl)c1`, for which the “activation” value was inactive: -10.4%.
For the molecule `COc1ccccc1NC(=O)C1=C(C)Nc2nc(SCc3ccccc3Cl)nn2C1c1cccnc1` (configuration not stated), the “activation” value was inactive: -0.455%.
The value for `O=C(Cn1ncc2c3ccccc3n(Cc3cccc(Cl)c3)c2c1=O)N1CCCCC1` was inactive: -15.4%.
The value for `COc1ccc(CN2C(=O)c3ccccc3C2C(=O)NC2CCCCCC2)c(OC)c1` (configuration not stated) was inactive: -13.5%; that for `CCOC(=O)C1CCN(C(=O)Cn2nc(CC)n3c(cc4occc43)c2=O)CC1` was inactive: -17.4%; that for `CCCCc1nn2c(C)c(-c3ccc(OCC)cc3)nc2s1` was inactive: -35%.
With `Cc1ccc(-n2c(=O)[nH]c3sc4c(c3c2=O)CCNC4)cc1C`, the “activation” value is inactive: -19.9%.
The value for `Cc1cc(Cl)ccc1NS(=O)(=O)c1cc2[nH]c(=O)c(=O)[nH]c2cc1C` was inactive: 4.98%; that for `CCCCc1nn2c(=O)cc(COC(=O)c3ccc(NC(=O)c4cccc(OC)c4)cc3)nc2s1` was inactive: -14.5%.
For the molecule `CCCN1CCN(CC2=C(C(=O)OCC)C(c3cccc(OC)c3OC)NC(=O)N2)CC1` (configuration not stated), the “activation” value is inactive: 20.5%.
The value for `COc1ccc(CN2CCN(c3ncnc4sc5c(c34)CCCC5)CC2)cc1F` was inactive: -12.8%.
The value for `Cc1ccc(NC(=O)N2CCc3c(sc4c3CCCC4)C2c2ccccc2)cc1F` (configuration not stated) was inactive: -10.8%; that for `CSc1ncc(C(=O)NCc2ccccc2Cl)c(C(F)(F)F)n1` was inactive: -7.25%.
In the case of `CCOc1cccc2sc(NC(=O)c3ccc(S(=O)(=O)N4CCc5ccccc54)cc3)nc12`, the “activation” value was inactive: 2.56%.
Turning to `CCc1cccc(C)c1NC(=O)C(CC)Sc1nc2ccncc2[nH]1` (configuration not stated), the “activation” value is inactive: -24.8%.
Take `Cc1cc(C)cc(NC(=O)N2CCN(C)c3ncccc32)c1`: the “activation” value is inactive: -11.7%.
`COc1cc(C2Nc3ccccc3-c3nnc(SCc4ccc(Cl)cc4)nc3O2)ccc1OCC(=O)O` (configuration not stated): the “activation” value is inactive: -10.9%.
Consider `Cc1ccc2c(CC(=O)Nc3ccc(S(=O)(=O)Nc4nc(C)cc(C)n4)cc3)coc2c1`, for which the “activation” value is inactive: -16.4%.
With `CCOC(=O)CSc1nc2cc3c(cc2c(=O)n1CCCCCC(=O)NCc1ccc2c(c1)OCO2)OCO3`, the “activation” value is inactive: 24.3%.
The value for `CCCCN(C)C(=O)c1ccc2c(c1)N(Cc1cccc(Cl)c1)C(=O)c1ccccc1S2=O` (configuration not stated) was inactive: -18.6%; that for `CCC1=Nc2cc(C(=O)NCCCOC(C)C)ccc2Sc2ccc(C)cc21` was inactive: -7.39%.
The result for `O=C(NCc1ccc(Cl)cc1)C1(c2cccs2)CCOCC1` reads inactive: -4.58%.
With `Cc1cc2oc(C(=O)N(Cc3ccc(N(C)C)cc3)CC3CCCO3)c(C)c2cc1C` (configuration not stated), the “activation” value is inactive: -10.8%.
Take `O=C(CCCCn1c(=O)c2ccccc2n(Cc2ccccc2F)c1=O)NCc1ccc2c(c1)OCO2`: the “activation” value was inactive: -26.7%.
The value for `CCN1CCc2c(sc(NC(=O)CSc3ccccc3)c2-c2nc3ccccc3s2)C1` was inactive: -17.5%; that for `COC(=O)C1=C(C)NC(C)=C(C(=O)OCCCN2CCC(c3ccccc3)(c3ccccc3)CC2)C1c1cccc([N+](=O)[O-])c1` (configuration not stated) was inactive: -13.3%.
As for `COc1ccc(-c2noc(-c3cc(C(C)C)[nH]n3)n2)cc1`, the “activation” value is inactive: -22.1%.
Take `CCOc1ccc(CNC(=O)CN2C(=O)CSc3ccc(S(=O)(=O)N4CCOCC4)cc32)cc1OC`: the “activation” value is inactive: -5.96%.
The value for `Cn1c(=O)cc(OCC(=O)N2CCN(c3ccccc3F)CC2)c2ccccc21` was inactive: -3.72%; that for `CN(C)CCOC(c1ccccc1)c1ccc(Br)cc1` (configuration not stated) was inactive: -12.8%; that for `Cc1ccc(OCCSc2nc3ccccc3n2CC(=O)N2CCCCC2)cc1C` was inactive: 3.65%.
Consider `COC(=O)c1ccccc1NC(=O)CCn1nc(C)c2c(C)n(-c3ccccc3)nc2c1=O`, for which the “activation” value is inactive: -14.2%.
The value for `Cc1ccc(CNC(=O)C2CCCN(c3nc4c(C)cc(C)cc4s3)C2)cc1` (configuration not stated) was inactive: -9.52%.
The value for `CC(=O)c1cccc(Nc2cc(C)nc3nc(-c4ccccc4C)nn23)c1` was inactive: -10.7%.
The result for `COC(=O)c1ccccc1NC(=O)Cn1ncc2c(C)n(Cc3ccc(F)cc3)c(C)c2c1=O` reads inactive: -9.3%.
Turning to `O=C(Nc1ccc(NC(=O)c2cccs2)cc1)c1ccc(Cl)cc1`, the “activation” value is inactive: 1.42%.
For `O=C(COc1ccccc1)NCCc1csc(-c2ccc(F)cc2)n1`, the “activation” value was inactive: -25.7%.
The value for `CC1(c2ccccc2)OC(C(=O)O)=CC1=O` (configuration not stated) was inactive: -8.73%; that for `Cc1ccccc1Cc1c(C)nc2c(-c3ccccc3)c(C)[nH]n2c1=O` was inactive: -6.35%.
The result for `Cc1cccc(C)c1NC(=O)CN(CC(=O)O)CC(=O)O` reads inactive: -12.2%; that for `COc1ccc(CNC(=O)CCc2nc3cccnc3n2Cc2ccc(OC)cc2)cc1`, inactive: -7.22%.
The value for `O=C(Cn1cc(S(=O)(=O)Cc2cccc(Cl)c2)c2ccccc21)Nc1ccc(F)c(Cl)c1` was inactive: -5.07%; that for `CCCCOc1ccc(Cn2c(=O)oc3ccccc32)cc1` was inactive: -17%.
On to `O=C(NCc1cccc(Cl)c1)c1oc(=O)c2ccccc2c1-c1ccccc1`, for which the “activation” value was inactive: -3.19%.
The value for `Cc1nn(CCCC(=O)NCCc2ccc(Cl)cc2)c(=O)c2nn(-c3ccccc3)c(C)c12` was inactive: -10.7%.
`COc1ccccc1CNS(=O)(=O)c1cc(-c2cc(C)no2)ccc1C`: the “activation” value is inactive: -11%.
The result for `CCOc1ccc(OCC(=O)NCCS(=O)(=O)N2CCN(c3ccc(OC)cc3)CC2)cc1` reads inactive: -19.8%; that for `COC(=O)c1ccc(NC(=O)c2nn(C)c3c2COc2ccccc2-3)cc1`, inactive: 2.64%; that for `Cc1ccc(NC(=O)Cn2c(=O)n(CCc3ccccc3)c(=O)c3sc4ccccc4c32)cc1C`, inactive: 16.7%.
Take `CCN(CC)CCOC(=O)c1ccc(N)cc1`: the “activation” value is inactive: -5.2%.
The result for `COc1ccc(C2CC(=O)c3cc(-c4nc(-c5cccc([N+](=O)[O-])c5)cs4)c(=O)n(-c4ccccc4C)c3C2)cc1` (configuration not stated) reads inactive: 1.09%; that for `CCn1c(=O)c(C(=O)Nc2cc(OC)c(OC)c(OC)c2)nc2ccccc21`, inactive: -6.64%.
For `O=C(NCc1ccccc1F)c1cccc(NC(=O)N2CCSc3ncccc32)c1`, the “activation” value is inactive: -15.4%.
For `Cc1ccc(-c2cc(NC(=O)COc3c(C)cc(C)cc3C)on2)cc1`, the “activation” value is inactive: -12%.
On to `COc1ccc(Cl)cc1NC(=O)c1c(NCc2cccs2)sc2c1CCC(C)C2` (configuration not stated), for which the “activation” value is inactive: -9.84%.
In the case of `CCOc1ccccc1NC(=O)CSc1nc(-c2cccs2)cc(C(F)(F)F)n1`, the “activation” value was inactive: -7.73%.
The result for `Cc1[nH]c2ccccc2c1SCCNC(=O)c1ccc(F)cc1` reads inactive: -9.82%.
Take `CC(C)c1ccc(NC(=O)CSC2=Nc3ccccc3C3=NC(CC(=O)NCCc4ccccc4)C(=O)N23)cc1` (configuration not stated): the “activation” value was inactive: -10.5%.
The value for `COc1cccc(CNC(=O)C2CCN(c3ncnc4c3nc3n4CCCCC3)CC2)c1` was inactive: -0.124%; that for `O=C(Nc1cc(-c2nc3ccccc3o2)ccc1Cl)c1cc([N+](=O)[O-])ccc1N1CCOCC1` was inactive: 2.99%.
The result for `Cc1cc(-c2ccc(C)c(S(=O)(=O)NCCc3ccccc3)c2)on1` reads inactive: -12.1%; that for `Cc1ccc(NC(=O)CSc2nc(=O)n(CCN3CCOCC3)c3c2CCC3)cc1Cl`, inactive: -26.8%.
Turning to `CCC(=O)N1c2ccccc2CC1C(=O)NCCN1CCN(c2ccccc2F)CC1` (configuration not stated), the “activation” value is inactive: -11.2%.
The value for `Cc1ccc(Nc2c(-c3cccc(Cl)c3)nc3cccc(C)n23)cc1` was inactive: -22.1%; that for `CCCc1noc(-c2ccc(NCc3ccccc3OC)c([N+](=O)[O-])c2)n1` was inactive: -15.8%.
For the molecule `CC(C)(C)OC(=O)N1CCC(c2c(C(=O)NCc3ccccn3)cnn2-c2ccccc2Cl)CC1`, the “activation” value is inactive: 0.0237%.
As for `Cc1ccc(C)c(N2CCN(S(=O)(=O)c3ccc(C4CCCCC4)cc3)CC2)c1`, the “activation” value is inactive: -12.7%.
Turning to `Cn1c(=O)nc2n(-c3ccc(Br)cc3)c3cccc(Cl)c3cc-2c1=O`, the “activation” value is inactive: -10.7%.
The result for `Cc1cccc(Cn2c(SCc3ccc(C(=O)NCc4cccs4)cc3)nc3ccncc32)c1` reads inactive: -6.53%; that for `CN(C)C1(CNC(=O)COc2cccc(Cl)c2)CCCCC1`, inactive: -4.23%; that for `Cc1ccccc1C(=O)Nc1ccc2nc(SCC(=O)N(C)c3ccccc3)sc2c1`, inactive: -10.2%.
The value for `COc1ccc(N(C(=O)c2cc(OC)c(OC)c(OC)c2)S(=O)(=O)c2ccc(C)cc2)cc1` was inactive: -16.3%.
